Data taken from PubChem BioAssay AID504333 (National Center for Advancing Translational Sciences (NCATS), 2011).
Values joined by “and” are separate entries in the source; they are usually repeats but may differ in a detail not shown here. Identical values can stand only once. The whole screen tested about 360,000 compounds, of which about 16,000 (4.4%) were called active. The shares of active, inactive and inconclusive entries below differ from those in the screen. Calls follow the shape of the dose curve; as a rule, active = well fitted inhibition curve with a large enough effect; inconclusive = small, poorly fitted or top-dose-only effect; inactive = no such curve, though single readings can be large or run the other way. A potency beside an inconclusive call is a rough fit, not a confirmed value.
Also: nearly all actives have a fitted effect of over 60% in size.
Potency is read from the fitted curve at half-maximal effect; tags tell the direction and shape of the fitted curve.

Each molecule was assayed against Bromodomain adjacent to zinc finger domain protein 2B (Homo sapiens) (UniProt Q9UIF8) (assay: qHTS Assay for Inhibitors of BAZ2B). Conditions: AlphaScreen BAZ2B-H3K14Ac peptide displacement; series mostly up to 114 µM.
UniProt Q9UIF8, sequence (Q9UIF8 whole entry, looked up, the tested form may be a part): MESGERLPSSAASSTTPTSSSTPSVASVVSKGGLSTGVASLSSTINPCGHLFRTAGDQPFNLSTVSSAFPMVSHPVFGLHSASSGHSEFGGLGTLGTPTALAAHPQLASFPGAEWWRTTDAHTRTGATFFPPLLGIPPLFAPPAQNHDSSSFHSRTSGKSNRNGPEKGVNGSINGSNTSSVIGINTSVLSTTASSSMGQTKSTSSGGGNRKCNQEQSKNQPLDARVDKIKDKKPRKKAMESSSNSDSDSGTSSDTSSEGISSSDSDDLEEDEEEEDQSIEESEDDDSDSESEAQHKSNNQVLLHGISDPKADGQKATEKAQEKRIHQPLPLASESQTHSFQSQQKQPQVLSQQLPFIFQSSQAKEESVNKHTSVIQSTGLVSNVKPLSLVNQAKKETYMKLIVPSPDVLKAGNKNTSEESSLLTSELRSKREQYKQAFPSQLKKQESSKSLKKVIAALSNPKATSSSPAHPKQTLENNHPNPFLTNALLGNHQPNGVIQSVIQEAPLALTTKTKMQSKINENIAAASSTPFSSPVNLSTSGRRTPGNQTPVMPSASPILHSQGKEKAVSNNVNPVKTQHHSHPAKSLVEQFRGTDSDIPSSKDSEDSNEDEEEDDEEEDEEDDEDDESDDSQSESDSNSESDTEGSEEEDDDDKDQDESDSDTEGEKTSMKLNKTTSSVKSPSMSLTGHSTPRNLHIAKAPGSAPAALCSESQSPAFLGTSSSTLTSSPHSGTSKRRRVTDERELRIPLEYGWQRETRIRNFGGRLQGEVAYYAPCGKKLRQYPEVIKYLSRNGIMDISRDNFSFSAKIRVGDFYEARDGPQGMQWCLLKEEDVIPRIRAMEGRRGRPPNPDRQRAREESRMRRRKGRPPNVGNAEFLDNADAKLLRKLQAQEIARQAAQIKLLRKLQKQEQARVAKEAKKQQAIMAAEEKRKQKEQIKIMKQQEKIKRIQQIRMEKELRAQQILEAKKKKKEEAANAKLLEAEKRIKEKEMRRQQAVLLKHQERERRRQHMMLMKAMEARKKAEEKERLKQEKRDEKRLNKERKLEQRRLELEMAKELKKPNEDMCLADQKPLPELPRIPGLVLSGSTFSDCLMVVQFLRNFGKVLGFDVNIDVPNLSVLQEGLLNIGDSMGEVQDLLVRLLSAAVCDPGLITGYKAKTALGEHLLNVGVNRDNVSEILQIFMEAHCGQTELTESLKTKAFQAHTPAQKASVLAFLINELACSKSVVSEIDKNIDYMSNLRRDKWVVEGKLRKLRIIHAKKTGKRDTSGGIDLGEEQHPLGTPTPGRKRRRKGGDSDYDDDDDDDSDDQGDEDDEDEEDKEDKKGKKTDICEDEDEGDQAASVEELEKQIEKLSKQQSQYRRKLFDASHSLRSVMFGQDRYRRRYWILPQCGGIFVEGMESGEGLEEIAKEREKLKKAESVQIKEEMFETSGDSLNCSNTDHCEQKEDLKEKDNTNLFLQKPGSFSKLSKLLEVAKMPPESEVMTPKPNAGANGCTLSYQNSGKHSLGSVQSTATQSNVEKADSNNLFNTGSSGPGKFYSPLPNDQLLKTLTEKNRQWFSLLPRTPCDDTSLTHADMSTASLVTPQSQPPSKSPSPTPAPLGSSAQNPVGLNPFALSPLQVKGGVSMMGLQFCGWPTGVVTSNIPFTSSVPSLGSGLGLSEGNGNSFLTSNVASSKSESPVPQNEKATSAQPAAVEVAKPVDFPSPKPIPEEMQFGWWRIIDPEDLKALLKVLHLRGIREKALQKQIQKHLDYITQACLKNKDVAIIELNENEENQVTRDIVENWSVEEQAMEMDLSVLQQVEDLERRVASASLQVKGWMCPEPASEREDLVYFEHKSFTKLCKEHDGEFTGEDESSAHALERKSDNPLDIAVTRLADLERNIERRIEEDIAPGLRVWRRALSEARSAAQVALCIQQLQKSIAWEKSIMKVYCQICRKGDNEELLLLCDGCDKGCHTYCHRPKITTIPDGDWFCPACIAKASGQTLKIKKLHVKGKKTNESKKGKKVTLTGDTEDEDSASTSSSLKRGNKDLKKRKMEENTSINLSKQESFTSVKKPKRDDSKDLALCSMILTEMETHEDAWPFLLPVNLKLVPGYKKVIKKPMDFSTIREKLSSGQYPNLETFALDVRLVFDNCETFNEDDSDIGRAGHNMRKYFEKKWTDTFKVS
How it was run: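 Complex of BAZ2B and biotin-H3K14Ac (50 nM apiece) forms over 30 min at RT, then faces library compounds up to 110 uM for another 30 min; AlphaScreen beads added, 20 min dark incubation, luminescence read.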
For Cc1cc(NCCCn2ccnc2)n2nc(-c3ccc(Cl)cc3)cc2n1, the Potency was active: 44.7 µM. With CCOc1ccc(C(=O)NCC(=O)OCc2cc(C(C)=O)ccc2OC)cc1 the Potency was “inactive”. COc1ccc(N2C(=S)NC3N2C(=S)NC3(C)c2ccccc2)cc1 (stereo unspecified) was tested, and the Potency was inconclusive: 56.2 µM [inhibitor, partial curve]. With O=C1/C(=C/c2cccnc2)SC(=S)N1CCc1ccccc1 the Potency was active: 10 µM. CN1CCN(C(c2ccc(Br)cc2)c2cc(Cl)c3cccnc3c2O)CC1 (stereo unspecified) was tested, and the Potency was active: 44.7 µM. With O=C1c2ccccc2-c2onc3ccc(Oc4ccccc4)c1c23 the Potency was inconclusive: 39.8 µM [inhibitor, partial curve]. COc1ccc(S(=O)(=O)c2cc3cc(C(C)(C)C)cc(O)c3oc2=O)cc1 was tested, and the Potency was active: 25.1 µM. CN(Cc1ccccc1)S(=O)(=O)c1ccccc1[N+](=O)[O-] was tested, and the Potency was inconclusive: 89.1 µM [inhibitor, single point]. With CCCCCn1c(=N)c(S(=O)(=O)c2ccc(C)cc2)cc2c(=O)n3cc(C)ccc3nc21 the Potency was “inactive”. With CN(C)c1ccc(NS(=O)(=O)c2ccc(-c3csnn3)cc2)cc1 the Potency was active: 56.2 µM. With CC(NC(=O)/C(C#N)=C/c1ccc(Cl)c([N+](=O)[O-])c1)c1ccccc1 (stereo unspecified) the Potency was inconclusive: 44.7 µM [inhibitor, partial curve]. For COc1ccc(S(=O)(=O)N2CCC(N3CCCCC3)CC2)cc1, the Potency was active: 70.8 µM. CCNC(=S)N/N=C(\C)c1ccc2ccccc2c1OC(F)F was tested, and the Potency was inconclusive: 39.8 µM [inhibitor, partial curve]. CC(=O)C1=C(C)NC(SCC(N)=O)=C(C#N)C1c1ccco1 (stereo unspecified) was tested, and the Potency was inconclusive: 89.1 µM [inhibitor, single point]. CCN(CC)S(=O)(=O)c1cccc(C(=O)N/N=C/c2ccccn2)c1 was tested, and the Potency was active: 56.2 µM. For O=C1C2CC=CCC2C(=O)N1c1ncn[nH]1 (stereo unspecified), the Potency was inconclusive: 89.1 µM [inhibitor, single point]. With Cc1ccc(NC(=O)CSc2nnc(-c3cc4occc4n3C)n2-c2ccccc2C)c(C)c1 the Potency was inconclusive: 31.6 µM [inhibitor, full curve]. O=C(Oc1cccc(NC(=O)c2ccccc2Cl)c1)c1ccc([N+](=O)[O-])cc1 was tested, and the Potency was inconclusive: 39.8 µM [inhibitor, full curve, poor fit]. In the case of O=C(CCS(=O)(=O)c1ccccc1)Nc1ccc(Cl)cn1, the Potency is reported as inconclusive: 79.4 µM [inhibitor, partial curve]. For Cc1ccc2occ(CC(=O)N(Cc3ccc(N(C)C)cc3)C3CCS(=O)(=O)C3)c2c1 (stereo unspecified), the Potency was active: 44.7 µM. In the case of Cc1cccc(C)c1OCCCN1CCCC1, the Potency is reported as active: 50.1 µM. In the case of Cc1ccc(NC2c3ncccc3C(=O)N2Cc2ccc(F)cc2)cc1 (stereo unspecified), the Potency is reported as “inactive”. For CN(C(=O)CSc1ncnc2sccc12)C1CCS(=O)(=O)C1 (stereo unspecified), the Potency was inconclusive: 89.1 µM [inhibitor, single point]. In the case of COc1ccccc1N1CCN(S(=O)(=O)c2cc3[nH]c(=O)c(=O)[nH]c3cc2C)CC1, the Potency is reported as inconclusive: 89.1 µM [inhibitor, single point]. COc1ccc(C2C=C(c3ccc(Br)cc3)Nc3nc(N4C(=O)CCC4=O)nn32)cc1 (stereo unspecified) was tested, and the Potency was inconclusive: 89.1 µM [inhibitor, single point]. COCc1c(C(=O)N/N=C\c2ccccn2)nnn1-c1nonc1N was tested, and the Potency was active: 39.8 µM. With COc1cccc(C(=O)NC2C(=O)N3C(C(=O)O)=C(COC(C)=O)CSC23)c1 (stereo unspecified) the Potency was inconclusive: 89.1 µM [inhibitor, single point]. Clc1ccc(NNc2ccnc3cc(Cl)ccc23)cc1 was tested, and the Potency was inconclusive: 8.91 µM [inhibitor, full curve]. In the case of O=C(CSc1nc(-c2ccccc2)c(-c2ccccc2)o1)N1CCOCC1, the Potency is reported as inconclusive: 39.8 µM [inhibitor, partial curve]. For NC(=O)C1CCN(C(=O)/C=C/c2ccco2)CC1, the Potency was “inactive”. O=C(N/N=C/c1ccncc1)c1cc2c(ccc3ccccc32)o1 was tested, and the Potency was “inactive”. In the case of Cc1cccc(CN2CCSCC2)c1, the Potency is reported as inconclusive: 89.1 µM [inhibitor, single point]. With NC(=O)[C@@H]1CCCNc2c(F)cc([N+](=O)[O-])cc2C(=O)N[C@@H](CO)C(=O)N[C@@H](Cc2ccc(O)cc2)C(=O)N1 the Potency was “inactive”. With O=C(C1COc2ccccc2O1)N1CCc2ccccc21 (stereo unspecified) the Potency was active: 44.7 µM. For Cc1ccc(C)c(N(C)C(=O)c2cc3c(=O)[nH]c4ccc(C)cc4c3s2)c1, the Potency was “inactive”. CC(C)CSC1=NSC2=NC(=O)/C(=C\c3cccs3)C(=N)N12 was tested, and the Potency was inconclusive: 56.2 µM [inhibitor, single point]. For CC(C)OC(=O)Nc1ccc2c(c1)N(C(=O)CCN(C)C)c1ccccc1CC2, the Potency was inconclusive: 89.1 µM [inhibitor, single point]. For COC(=O)C1=C(C)NC(=O)/C1=C\c1ccco1, the Potency was inconclusive: 70.8 µM [inhibitor, single point]. With CCOCCCn1c(SCC(=O)NCCCOC)nc2c(sc3ccccc32)c1=O the Potency was “inactive”. Cc1ccc(C2CC(=O)C(C=NCCN3CCN(C(=S)Nc4ccccc4)CC3)=C(O)C2)cc1 (stereo unspecified) was tested, and the Potency was inconclusive: 89.1 µM [inhibitor, single point]. With O=c1c2ccccc2nc(SCc2nc3ccccc3s2)n1CCCO the Potency was inconclusive: 89.1 µM [inhibitor, single point]. With O=C(CCC(=O)NNC(=O)COc1ccc(Br)cc1)NCc1ccccc1 the Potency was “inactive”. In the case of CCN(CC)c1ccc(NC(=O)CN2CCN(CC(=O)Nc3ccccc3OC)CC2)cc1, the Potency is reported as inconclusive: 12.6 µM [inhibitor, full curve, poor fit] and inconclusive: 39.8 µM [inhibitor, partial curve]. CC1(C)Cc2nc3oc4c(=S)nc[nH]c4c3cc2CO1 was tested, and the Potency was “inactive”. For COc1ccc(NC(=O)c2ccccc2NS(=O)(=O)c2ccc(C)cc2)c([N+](=O)[O-])c1, the Potency was inconclusive: 11.2 µM [inhibitor, full curve]. With COc1ccccc1/C=C/C(=O)N1CCCC1 the Potency was inconclusive: 89.1 µM [inhibitor, single point]. For COc1ccc(N2CCCC2)c(NC(=O)COc2ccccc2)c1, the Potency was inconclusive: 39.8 µM [inhibitor, partial curve]. With Cc1cc(=O)oc2cc(OC(=O)c3nn(C(C)C)c(=O)c4ccccc34)ccc12 the Potency was “inactive”. In the case of O=S(=O)(N/N=C1\CC(c2ccccc2)Oc2ccccc21)c1ccccc1 (stereo unspecified), the Potency is reported as “inactive”. In the case of O=C(O)COc1ccc(/C=N/NC(=O)COc2nsnc2N2CCOCC2)cc1, the Potency is reported as “inactive”. For COC(=O)[C@@H]1CC[C@H](C)[C@@H](c2ccc(C)cc2)N1C(=O)c1ccc(/C=N/OC[C@@H](O)COCc2ccco2)cc1, the Potency was inconclusive: 39.8 µM [inhibitor, partial curve]. For O=C(c1ccc(Oc2ccccc2)cc1)c1nc2c(n1O)CCCC2, the Potency was inconclusive: 6.31 µM [inhibitor, single point]. In the case of O=C(CSc1nnc(NC2CCCCC2)s1)Nc1ccc2c(c1)C(=O)c1ccccc1C2=O, the Potency is reported as inconclusive: 79.4 µM [inhibitor, single point]. For Nc1cc(-c2ccc(Br)cc2)nn1Cc1ccccc1, the Potency was inconclusive: 31.6 µM [inhibitor, partial curve]. COc1ccc(C2c3[nH]c4ccccc4c3CCN2C(=O)c2cc3ncccn3n2)c(F)c1 (stereo unspecified) was tested, and the Potency was active: 31.6 µM. For COc1ccc(NC(=O)c2ccc3[nH]c(C)c(C)c3c2)cc1, the Potency was inconclusive: 50.1 µM [inhibitor, partial curve]. For CCOc1cc(/C=C2\C(=N)N3N=C(N4CCCCC4)SC3=NC2=O)ccc1OC(=O)c1ccco1, the Potency was inconclusive: 35.5 µM [inhibitor, full curve, poor fit]. With CC(O)CNCCCOc1ccccc1OCc1ccccc1 (stereo unspecified) the Potency was active: 50.1 µM. For Cc1cccc(C)c1NC(=O)CSc1nnc(NC(=O)CN2CCOCC2)s1, the Potency was inconclusive: 89.1 µM [inhibitor, single point]. For CCOC(=O)c1cnc(SC)nc1Oc1cccc(NS(=O)(=O)c2ccc(F)cc2)c1, the Potency was “inactive”. With Cc1cc(NS(C)(=O)=O)c(=O)n(Cc2cccc(F)c2)c1 the Potency was inconclusive: 89.1 µM [inhibitor, single point]. In the case of COc1ccc(-c2nn(-c3ccccc3)cc2/C=C2/SC(=S)N(CCCC(=O)O)C2=O)c(C)c1, the Potency is reported as active: 50.1 µM. CC(=O)NC(=S)Nc1ccc(NC(=O)c2cccnc2Cl)cc1 was tested, and the Potency was “inactive”. For c1cncc(CNc2ncnc3sc4c(c23)CCC4)c1, the Potency was inconclusive: 89.1 µM [inhibitor, single point]. For COc1cccc(/C=N/NC(=O)c2[nH]nc3c2CCc2ccccc2-3)c1, the Potency was “inactive”. In the case of COc1ccc(N2CCN(C(=O)c3ccc4nc(N5CCC(C)CC5)sc4c3)CC2)cc1, the Potency is reported as inconclusive: 22.4 µM [inhibitor, full curve]. For C=CCn1c(NCc2ccc(N(C)C)cc2)nc2ccccc21, the Potency was active: 44.7 µM. In the case of COc1ccc(NC(=O)N2CCc3c([nH]c4ccc(OC)cc34)C2c2ccc(OC)cc2)cc1 (stereo unspecified), the Potency is reported as inconclusive: 31.6 µM [inhibitor, partial curve]. COc1ccc(N2CCN(C(c3ccccc3OC)c3nnnn3Cc3ccco3)CC2)cc1 (stereo unspecified) was tested, and the Potency was active: 39.8 µM. In the case of COc1cccc(-c2ccc(NC(=O)C3CCCN(CCCn4nc(C)cc4C)C3)cc2)c1 (stereo unspecified), the Potency is reported as inconclusive: 35.5 µM [inhibitor, single point]. In the case of O=C(NCc1n[nH]c(=S)n1-c1ccc(Cl)c(Cl)c1)c1cccs1, the Potency is reported as inconclusive: 79.4 µM [inhibitor, single point].
